Assay results: PubChem BioAssay AID485344 (National Center for Advancing Translational Sciences (NCATS), 2010)
Hit rate of the full screen: of about 340,000 compounds, about 6,900 (2%) were called active. Rule as the data show it: active = inhibition above about 30%; inactive = below that, where a call was filed. Only a part is listed here, and it is no random draw. Entries without a call were filed so in the source.

Each compound was assayed against D(2) dopamine receptor (Homo sapiens) (UniProt P14416) (assay: HTS Assay for Allosteric Antagonists of the Human D2 Dopamine Receptor: Primary Screen for Antagonists). Conditions: HEK293 TREx D2 cells, calcium flux, dopamine EC80; at 10 µM; stronger effect = higher value.
Chain of UniProt P14416 (P14416 whole entry, looked up): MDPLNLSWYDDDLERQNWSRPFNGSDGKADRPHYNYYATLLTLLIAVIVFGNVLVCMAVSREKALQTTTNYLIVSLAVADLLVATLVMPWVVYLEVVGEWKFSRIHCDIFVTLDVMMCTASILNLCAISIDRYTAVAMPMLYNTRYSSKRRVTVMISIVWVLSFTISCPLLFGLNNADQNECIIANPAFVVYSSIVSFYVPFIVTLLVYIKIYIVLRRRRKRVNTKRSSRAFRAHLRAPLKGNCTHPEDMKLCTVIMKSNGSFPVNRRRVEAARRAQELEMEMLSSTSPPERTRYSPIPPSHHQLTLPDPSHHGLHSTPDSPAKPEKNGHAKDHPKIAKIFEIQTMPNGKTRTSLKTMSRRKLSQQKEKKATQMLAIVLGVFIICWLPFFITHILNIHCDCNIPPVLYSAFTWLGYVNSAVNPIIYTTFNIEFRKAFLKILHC
Method in brief: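 Read-out: kinetic calcium fluorescence (1 cycle/s) in inducible HEK293 T-REx D2 cells after an EC80 dopamine addition that followed 180 s compound preincubation. Loss of the dopamine response indicates antagonism.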
Also: 0% is about no effect.

Structure (SMILES) | inhibition
COc1ccc(NC(=O)C2CCCO2)cc1Cl (stereo unspecified) | active: 31.1%
CCC1CN(C(=O)N2CCC(C(=O)N3CCN(c4cc(C)ccc4C)CC3)CC2)c2ccccc2O1 (stereo unspecified) | -2.07%
Cc1cc(F)ccc1NC(=O)CCSc1nc(-c2ccco2)cc(C(F)(F)F)n1 | 6.43%
CCC(Sc1nnc2c3ccccc3n(C)c2n1)C(=O)Nc1nnc(C(C)C)s1 (stereo unspecified) | -5.46%
CCOC(=O)c1ccc(NC(=O)Cn2cnc3sc(C(=O)OCC)c(C)c3c2=O)cc1 | 5.65%
CCc1ccc(NC(=O)CSc2nc3c([nH]c4ccccc43)c(=O)n2-c2cccc(OC)c2)cc1 | 0.729%
COc1cc(C)ccc1OCCSc1nc2ccc(NC(C)=O)cc2s1 | 2.87%
CCCCCn1c(=O)c2c(nc3n2CCN3c2ccc(Br)cc2)n(C)c1=O | -5.68%
COc1cccc(-c2nnc3sc(CN4CCCCC4)cn23)c1 | 0.541%
CCC1CCCCN1C(=O)Cn1c(=O)n(CCCCCC(=O)NCc2ccccc2Cl)c(=O)c2sccc21 (stereo unspecified) | 5.8%
Cc1cccc(CCNC(=O)c2c[nH]c3ccc(S(=O)(=O)Nc4ccccc4F)cc3c2=O)c1 | 14.9%
Fc1ccccc1Nc1ncnc2c1nc1n2CCCCC1 | -8.45%
O=C(NCCc1ccc(Cl)cc1)c1ccc2c(c1)N(Cc1cccc(Cl)c1)C(=O)c1ccccc1S2(=O)=O | -12.4%
COc1cc(N)c(Cl)cc1C(=O)OCC(=O)c1cccs1 | active: 32.7%
Cn1cccc1C(=O)OCC(=O)N1CC(=O)Nc2ccccc21 | active: 33.7%
COC(=O)c1ccc(NC(=O)CC2C(=O)N(c3cccc(C)c3)C(=O)N2C2CCCC2)cc1 (stereo unspecified) | 4.35%
Cc1cc(=O)oc2c3c(ccc12)OCN(Cc1ccc(Cl)cc1)C3 | -27.3%
O=C(NCCC(=O)N1CCC2(CC1)NCCc1[nH]cnc12)c1ccc(Br)cc1 | active: 32%
O=C(CCn1ccc2cc(S(=O)(=O)N3CCCC3)ccc21)NCc1ccccc1Cl | -2.97%
CCc1nn2c(=O)cc(COC(=O)c3ccccc3NC(=O)c3cccs3)nc2s1 | 4.48%
CCn1nc(C)c2c(-c3ccccc3)cc(=O)n(C(C)C(=O)NCCc3ccccc3)c21 (stereo unspecified) | 9.13%

Structure (SMILES) | inhibition
COc1ccccc1-c1nc(SCC(=O)Nc2ccc(C)c(C)c2)n[nH]1 | 6.43%
CSc1ccc(CCNC(=O)C2CCN(c3ncnc4c3nc3n4CCCCC3)CC2)cc1 | 24.3%
Cc1sc2ncn(CC(=O)N(C)c3cccc(C(F)(F)F)c3)c(=O)c2c1S(=O)(=O)N1CCN(c2ncccn2)CC1 | 3.01%
CCN(CC)C(=O)COc1ccc(-c2nnc(Nc3ccc(OC)c(C(=O)NC)c3)c3ccccc23)cc1 | -14.3%
C=C(C)C1CC=C(CN2CCC(C(=O)OCC)CC2)CC1 (stereo unspecified) | active: 72.3%
COc1cc(NC(=O)CCNC(=O)Cn2cnc3ccccc3c2=O)cc(OC)c1OC | 1.33%
CCCc1cc(N2CCN(c3ccc(OC)cc3)CC2)n2cnnc2n1 | -24.4%
COc1ccc(CCn2c(=O)c3cccnc3n(CC(=O)Nc3c(C)cc(C)cc3C)c2=O)cc1OC | -5.17%
Cc1cc(C)c(NC(=O)Nc2csc3c2CCCC3)c(C)c1 | -2.97%
O=C(CCCCCn1c(=O)[nH]c2ccccc2c1=O)NCc1ccc(Cl)cc1 | 14.4%
COc1cc(OC)cc(C(=O)N2CCN(c3ccccc3F)CC2)c1 | active: 31%
CC(C)(C)c1ccc(C(=O)N2CCN(Cc3cc(=O)n4nc(-c5ccccc5F)sc4n3)CC2)cc1 | -13.4%
Cc1ccc(NC(=O)C2CCC(CNS(=O)(=O)c3ccc4c(c3)C(C)(C)C(=O)N4C)CC2)cc1 (stereo unspecified) | -15.4%
CCOc1ccc(CNC(=O)Cc2ccc(NC(=O)N3CCCCc4ccccc43)cc2)cc1OC | 0.241%
Cc1[nH]n2c(=O)c3c(nc2c1-c1ccccc1)CCC3 | active: 35.9%
COc1cc(OC)c(NC(=O)Cn2cnc3nc4c(cc3c2=O)CCCC4)cc1Cl | 7.37%
Clc1ccc(-c2nnn3c2nc(NCc2ccc4c(c2)OCO4)c2ccccc23)cc1 | -1.66%
Cc1cc(=O)oc2cc(OCC(=O)Nc3c(C(C)C)cccc3C(C)C)ccc12 | 2.73%
O=C(CC(NCc1cccnc1)C(=O)O)Nc1ccc(O)cc1 (stereo unspecified) | 23%
CCOc1ccc(CCNC(=O)C2CCN(Cc3nc(-c4ccccc4C)oc3C)CC2)cc1OCC | -20.2%
CCN(C(=O)CSc1nc2ccccc2n1CC(=O)N1CCCC(C)C1)c1ccccc1 (stereo unspecified) | 10.6%

Structure (SMILES) | inhibition
Fc1ccc(Nc2c(-c3ccco3)nc3ccccn23)cc1 | -0.117%
Cn1c(=O)c(=O)n(C)c2cc(S(=O)(=O)Nc3ccc(Cl)c(C(F)(F)F)c3)ccc21 | -16.7%
Cc1ccc(C2c3[nH]c4ccccc4c3CCN2C(=O)CCc2ccccc2)cc1 (stereo unspecified) | 1.81%
O=c1c2nnn(-c3cccc(F)c3)c2ncn1Cc1ccccn1 | active: 33.9%
O=C(COc1ccccc1)Nc1nnc(SCc2cc(=O)c3ccccc3[nH]2)s1 | -10.4%
Clc1ccc(-c2noc(-c3cccnc3N3CCN(c4ccccc4)CC3)n2)cc1 | -5.22%
COC(=O)c1ccc(NC(=O)CC2C(=O)N(c3ccc(C)cc3)C(=O)N2Cc2ccc(OC)cc2)cc1 (stereo unspecified) | 1.95%
CCOc1ccc(NC(=O)Cn2cc(C(=O)c3ccccc3)c(=O)c3cc4c(cc32)OCCO4)cc1 | -14.5%
CCc1ccccc1Nc1cc(C(=O)NCCCN(C)C2CCCCC2)c2ccccc2n1 | -20.4%
Cc1ccc(C)c(N2CCN(C(=O)c3nn(C)c4c3CS(=O)(=O)c3ccccc3-4)CC2)c1 | 22.3%
COc1ccccc1/C=C/C(=O)NCCC1=CCCCC1 | active: 35.4%
Cc1cnc2c(c1SCC(=O)NCc1ccccc1Cl)c(=O)n(C)c(=O)n2C | -26.2%
Cc1ccc(NC(=O)c2ccc3c(c2)OCCO3)cc1S(=O)(=O)Nc1cccc(Cl)c1 | active: 31.3%
CC(C)(Oc1ccc(Cl)cc1)C(=O)Nc1nnc2n1CCS2 | 14.7%
CCCCNC(=O)CC1N=C2c3ccccc3N=C(SCC(=O)NCc3ccccc3Cl)N2C1=O (stereo unspecified) | -4.06%
Cc1ccc(NC(=O)CCC(=O)N2CCSc3ccccc32)cc1 | 16.3%
COc1cccc(C(=O)Nc2cccc(OCc3cc(=O)n4cccc(C)c4n3)c2)c1 | -3.01%
COC(=O)c1cccc(CN2C(=O)SC(Nc3ccc(Cl)cc3)C2=O)c1 (stereo unspecified) | 8.08%
CCOC(=O)c1noc2ncnc(Nc3cccc(C(F)(F)F)c3)c12 | 11.1%
